The source of these data is PMC10784301.

Assay [1] deals with T1, Recombinant GST-TRIM65 protein (UniProt Q6PJ69).
T1 sequence: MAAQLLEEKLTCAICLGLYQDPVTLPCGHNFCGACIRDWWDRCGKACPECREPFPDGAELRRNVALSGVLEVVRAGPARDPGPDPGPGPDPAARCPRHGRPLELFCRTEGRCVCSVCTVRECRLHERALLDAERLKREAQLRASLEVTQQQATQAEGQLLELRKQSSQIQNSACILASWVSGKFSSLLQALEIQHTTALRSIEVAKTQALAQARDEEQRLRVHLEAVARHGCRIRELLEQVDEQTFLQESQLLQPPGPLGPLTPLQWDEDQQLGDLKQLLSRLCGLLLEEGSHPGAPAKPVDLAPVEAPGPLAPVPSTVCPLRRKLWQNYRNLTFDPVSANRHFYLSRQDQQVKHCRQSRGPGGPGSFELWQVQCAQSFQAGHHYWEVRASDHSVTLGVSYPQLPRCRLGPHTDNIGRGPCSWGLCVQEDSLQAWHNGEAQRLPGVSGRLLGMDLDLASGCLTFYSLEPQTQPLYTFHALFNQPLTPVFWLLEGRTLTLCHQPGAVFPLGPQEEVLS
Put plainly: pull-down; GST or GST-TRIM65 with whole-cell lysates of transfected HEK293T cells, 50 mM Tris-HCl pH 7.5, 150 mM NaCl, 1% Triton, 4 °C overnight; glutathione Sepharose, immunoblot; only the target purified. (In western blotting, separated proteins are transferred to a membrane and probed.)

In assay [2] the target is T2, HA-TOX4 (UniProt O94842).
T2 sequence: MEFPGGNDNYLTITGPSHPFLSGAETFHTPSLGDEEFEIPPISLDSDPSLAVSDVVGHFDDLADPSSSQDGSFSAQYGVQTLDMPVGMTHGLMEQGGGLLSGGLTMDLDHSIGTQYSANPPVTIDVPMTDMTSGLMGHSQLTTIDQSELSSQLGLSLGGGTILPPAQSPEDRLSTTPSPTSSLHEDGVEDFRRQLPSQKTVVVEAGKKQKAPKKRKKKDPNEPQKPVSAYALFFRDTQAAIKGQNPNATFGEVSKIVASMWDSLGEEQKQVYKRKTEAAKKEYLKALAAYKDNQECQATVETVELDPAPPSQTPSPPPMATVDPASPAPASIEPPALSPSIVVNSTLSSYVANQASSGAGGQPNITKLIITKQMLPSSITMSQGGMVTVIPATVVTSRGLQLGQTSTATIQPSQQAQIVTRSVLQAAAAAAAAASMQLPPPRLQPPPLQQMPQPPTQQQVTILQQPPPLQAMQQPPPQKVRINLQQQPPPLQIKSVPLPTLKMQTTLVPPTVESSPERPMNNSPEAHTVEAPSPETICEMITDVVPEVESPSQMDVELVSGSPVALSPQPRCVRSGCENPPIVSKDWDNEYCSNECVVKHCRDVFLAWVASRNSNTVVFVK
As to the kind of experiment: co-IP; HEK293T co-transfected with HA-TOX4 and Flag-TRIM65, MG132 10 uM 4 h before harvest; lysates with specific antibodies and Protein A/G, immunoblot.

For assay [3], the target named is T2, HA-TOX4. Put plainly: co-IP; HEK293T transfected with GFP-TRIM65 full length or deletion mutants together with HA-TOX4, MG132; precipitated with HA antibody, blotted with HA or GFP antibody.

Results are given in words; binding and its absence hold for the method and conditions named. Binding seen in cells or lysates may run through a third protein. Some binding calls cover weakened binding; strength is not graded here. Sequences can lack the tags named with a protein.

B1: TOX4 fragment (residues 223-540) fused with GFP (domain or fragment, UniProt O94842 223-540)
chain: PQKPVSAYALFFRDTQAAIKGQNPNATFGEVSKIVASMWDSLGEEQKQVYKRKTEAAKKEYLKALAAYKDNQECQATVETVELDPAPPSQTPSPPPMATVDPASPAPASIEPPALSPSIVVNSTLSSYVANQASSGAGGQPNITKLIITKQMLPSSITMSQGGMVTVIPATVVTSRGLQLGQTSTATIQPSQQAQIVTRSVLQAAAAAAAAASMQLPPPRLQPPPLQQMPQPPTQQQVTILQQPPPLQAMQQPPPQKVRINLQQQPPPLQIKSVPLPTLKMQTTLVPPTVESSPERPMNNSPEAHTVEAPSPETICEM
As to B1, the binding result in assay [1] is recorded as “no binding”.

B2: TOX4 fragment (residues 223-622) fused with GFP (domain or fragment, UniProt O94842 223-621)
chain: PQKPVSAYALFFRDTQAAIKGQNPNATFGEVSKIVASMWDSLGEEQKQVYKRKTEAAKKEYLKALAAYKDNQECQATVETVELDPAPPSQTPSPPPMATVDPASPAPASIEPPALSPSIVVNSTLSSYVANQASSGAGGQPNITKLIITKQMLPSSITMSQGGMVTVIPATVVTSRGLQLGQTSTATIQPSQQAQIVTRSVLQAAAAAAAAASMQLPPPRLQPPPLQQMPQPPTQQQVTILQQPPPLQAMQQPPPQKVRINLQQQPPPLQIKSVPLPTLKMQTTLVPPTVESSPERPMNNSPEAHTVEAPSPETICEMITDVVPEVESPSQMDVELVSGSPVALSPQPRCVRSGCENPPIVSKDWDNEYCSNECVVKHCRDVFLAWVASRNSNTVVFVK
Regarding B2, the binding result in assay [1] is recorded as “no binding”.

B3: TOX4 fragment (residues 301-540) fused with GFP (domain or fragment, UniProt O94842 301-540)
chain: ETVELDPAPPSQTPSPPPMATVDPASPAPASIEPPALSPSIVVNSTLSSYVANQASSGAGGQPNITKLIITKQMLPSSITMSQGGMVTVIPATVVTSRGLQLGQTSTATIQPSQQAQIVTRSVLQAAAAAAAAASMQLPPPRLQPPPLQQMPQPPTQQQVTILQQPPPLQAMQQPPPQKVRINLQQQPPPLQIKSVPLPTLKMQTTLVPPTVESSPERPMNNSPEAHTVEAPSPETICEM
In the case of B3, the binding entry in assay [1] is “no binding”.

B4: TOX4 N-terminal domain (residues 1-300) fused with GFP (domain or fragment, UniProt O94842 1-300)
chain: MEFPGGNDNYLTITGPSHPFLSGAETFHTPSLGDEEFEIPPISLDSDPSLAVSDVVGHFDDLADPSSSQDGSFSAQYGVQTLDMPVGMTHGLMEQGGGLLSGGLTMDLDHSIGTQYSANPPVTIDVPMTDMTSGLMGHSQLTTIDQSELSSQLGLSLGGGTILPPAQSPEDRLSTTPSPTSSLHEDGVEDFRRQLPSQKTVVVEAGKKQKAPKKRKKKDPNEPQKPVSAYALFFRDTQAAIKGQNPNATFGEVSKIVASMWDSLGEEQKQVYKRKTEAAKKEYLKALAAYKDNQECQATV
Take B4: the binding result in assay [1] was “binds”.

B5: Flag-TRIM65 (protein, UniProt Q6PJ69 1-517)
chain: MAAQLLEEKLTCAICLGLYQDPVTLPCGHNFCGACIRDWWDRCGKACPECREPFPDGAELRRNVALSGVLEVVRAGPARDPGPDPGPGPDPAARCPRHGRPLELFCRTEGRCVCSVCTVRECRLHERALLDAERLKREAQLRASLEVTQQQATQAEGQLLELRKQSSQIQNSACILASWVSGKFSSLLQALEIQHTTALRSIEVAKTQALAQARDEEQRLRVHLEAVARHGCRIRELLEQVDEQTFLQESQLLQPPGPLGPLTPLQWDEDQQLGDLKQLLSRLCGLLLEEGSHPGAPAKPVDLAPVEAPGPLAPVPSTVCPLRRKLWQNYRNLTFDPVSANRHFYLSRQDQQVKHCRQSRGPGGPGSFELWQVQCAQSFQAGHHYWEVRASDHSVTLGVSYPQLPRCRLGPHTDNIGRGPCSWGLCVQEDSLQAWHNGEAQRLPGVSGRLLGMDLDLASGCLTFYSLEPQTQPLYTFHALFNQPLTPVFWLLEGRTLTLCHQPGAVFPLGPQEEVLS
In the case of B5, the binding result in the assay with HA-TOX4 [2] was “binds”.

B6: GFP-TRIM65 full length (protein, UniProt Q6PJ69 1-517)
chain: MAAQLLEEKLTCAICLGLYQDPVTLPCGHNFCGACIRDWWDRCGKACPECREPFPDGAELRRNVALSGVLEVVRAGPARDPGPDPGPGPDPAARCPRHGRPLELFCRTEGRCVCSVCTVRECRLHERALLDAERLKREAQLRASLEVTQQQATQAEGQLLELRKQSSQIQNSACILASWVSGKFSSLLQALEIQHTTALRSIEVAKTQALAQARDEEQRLRVHLEAVARHGCRIRELLEQVDEQTFLQESQLLQPPGPLGPLTPLQWDEDQQLGDLKQLLSRLCGLLLEEGSHPGAPAKPVDLAPVEAPGPLAPVPSTVCPLRRKLWQNYRNLTFDPVSANRHFYLSRQDQQVKHCRQSRGPGGPGSFELWQVQCAQSFQAGHHYWEVRASDHSVTLGVSYPQLPRCRLGPHTDNIGRGPCSWGLCVQEDSLQAWHNGEAQRLPGVSGRLLGMDLDLASGCLTFYSLEPQTQPLYTFHALFNQPLTPVFWLLEGRTLTLCHQPGAVFPLGPQEEVLS
As for B6, the binding result with HA-TOX4 [3] was “binds”.

B7: HA-TOX4 (protein, UniProt O94842 1-621)
chain: MEFPGGNDNYLTITGPSHPFLSGAETFHTPSLGDEEFEIPPISLDSDPSLAVSDVVGHFDDLADPSSSQDGSFSAQYGVQTLDMPVGMTHGLMEQGGGLLSGGLTMDLDHSIGTQYSANPPVTIDVPMTDMTSGLMGHSQLTTIDQSELSSQLGLSLGGGTILPPAQSPEDRLSTTPSPTSSLHEDGVEDFRRQLPSQKTVVVEAGKKQKAPKKRKKKDPNEPQKPVSAYALFFRDTQAAIKGQNPNATFGEVSKIVASMWDSLGEEQKQVYKRKTEAAKKEYLKALAAYKDNQECQATVETVELDPAPPSQTPSPPPMATVDPASPAPASIEPPALSPSIVVNSTLSSYVANQASSGAGGQPNITKLIITKQMLPSSITMSQGGMVTVIPATVVTSRGLQLGQTSTATIQPSQQAQIVTRSVLQAAAAAAAAASMQLPPPRLQPPPLQQMPQPPTQQQVTILQQPPPLQAMQQPPPQKVRINLQQQPPPLQIKSVPLPTLKMQTTLVPPTVESSPERPMNNSPEAHTVEAPSPETICEMITDVVPEVESPSQMDVELVSGSPVALSPQPRCVRSGCENPPIVSKDWDNEYCSNECVVKHCRDVFLAWVASRNSNTVVFVK
With B7, the binding entry in assay [1] is “binds”.
